Laboratory results reported in the supplement of paper PMC8728848.
Some of the results follow.

How the values were obtained:
Assay in all cases: glycan array binding signal (z-score within array); higher = stronger binding
Conditions in all cases: glycan notation: IUPAC condensed, linker removed; mutation: D325N
Fuc(a1-2)Gal = target: Fuc(a1-2)Gal
Procedure, shortened: (§1)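 The Consortium for Functional Glycomics database supplied 3228 glycan arrays, of which those lacking an available protein sequence were dropped. The binding signal, a within-array Z-score, was averaged across arrays of the same protein sequence and across linkers. Negative scores can be read as non-binding.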

Fuc(a1-2)Gal(b1-3)GalNAc = target: Fuc(a1-2)Gal(b1-3)GalNAc
Procedure, shortened: as §1

[1] = target: Fuc(a1-2)Gal(b1-3)GalNAc(b1-3)Gal
Procedure, shortened: as §1

[2] = target: Fuc(a1-2)Gal(b1-3)GalNAc(b1-3)Gal(a1-4)Gal(b1-4)Glc
Procedure, shortened: as §1

[3] = target: Fuc(a1-2)Gal(b1-3)GalNAc(b1-4)[Neu5Ac(a2-3)]Gal(b1-4)Glc
Procedure, shortened: as §1

Fuc(a1-2)Gal(b1-3)GlcNAc = target: Fuc(a1-2)Gal(b1-3)GlcNAc
Procedure, shortened: as §1

[4] = target: Fuc(a1-2)Gal(b1-3)GlcNAc(b1-3)Gal(b1-4)Glc
Procedure, shortened: as §1

[5] = target: Fuc(a1-2)Gal(b1-3)[Fuc(a1-4)]GlcNAc
Procedure, shortened: as §1

Fuc(a1-2)Gal(b1-4)Glc = target: Fuc(a1-2)Gal(b1-4)Glc
Procedure, shortened: as §1

Fuc(a1-2)Gal(b1-4)Glc6S = target: Fuc(a1-2)Gal(b1-4)Glc6S
Procedure, shortened: as §1

Fuc(a1-2)Gal(b1-4)GlcNAc = target: Fuc(a1-2)Gal(b1-4)GlcNAc
Procedure, shortened: as §1

[6] = target: Fuc(a1-2)Gal(b1-4)GlcNAc(b1-3)Gal(b1-4)GlcNAc
Procedure, shortened: as §1

[7] = target: Fuc(a1-2)Gal(b1-4)GlcNAc(b1-3)Gal(b1-4)GlcNAc(b1-3)Gal(b1-4)GlcNAc
Procedure, shortened: as §1

[8] = target: Fuc(a1-2)Gal(b1-4)GlcNAc6S
Procedure, shortened: as §1

[9] = target: Fuc(a1-2)Gal(b1-4)[Fuc(a1-3)]GlcNAc
Procedure, shortened: as §1

[10] = target: Fuc(a1-2)Gal(b1-4)[Fuc(a1-3)]GlcNAc(b1-3)Gal(b1-4)[Fuc(a1-3)]GlcNAc
Procedure, shortened: as §1

[11] = target: Fuc(a1-2)Gal(b1-4)[Fuc(a1-3)]GlcNAc(b1-3)Gal(b1-4)[Fuc(a1-3)]GlcNAc(b1-3)Gal(b1-4)[Fuc(a1-3)]GlcNAc
Procedure, shortened: as §1

Fuc(a1-2)Gal6S(b1-4)Glc = target: Fuc(a1-2)Gal6S(b1-4)Glc
Procedure, shortened: as §1

[12] = target: Fuc(a1-2)Gal6S(b1-4)Glc6S
Procedure, shortened: as §1

[13] = target: Fuc(a1-2)Gal6S(b1-4)GlcNAc
Procedure, shortened: as §1

Fuc(a1-2)[Gal(a1-3)]Gal = target: Fuc(a1-2)[Gal(a1-3)]Gal
Procedure, shortened: as §1

[14] = target: Fuc(a1-2)[Gal(a1-3)]Gal(b1-3)GlcNAc
Procedure, shortened: as §1

[15] = target: Fuc(a1-2)[Gal(a1-3)]Gal(b1-4)Glc
Procedure, shortened: as §1

[16] = target: Fuc(a1-2)[Gal(a1-3)]Gal(b1-4)GlcNAc
Procedure, shortened: as §1

[17] = target: Fuc(a1-2)[Gal(a1-3)]Gal(b1-4)[Fuc(a1-3)]GlcNAc
Procedure, shortened: as §1

[18] = target: Fuc(a1-2)[Gal(a1-4)]Gal(b1-4)GlcNAc
Procedure, shortened: as §1

[19] = target: Fuc(a1-2)[GalNAc(a1-3)]Gal
Procedure, shortened: as §1

[20] = target: Fuc(a1-2)[GalNAc(a1-3)]Gal(b1-3)GlcNAc
Procedure, shortened: as §1

[21] = target: Fuc(a1-2)[GalNAc(a1-3)]Gal(b1-4)Glc
Procedure, shortened: as §1

[22] = target: Fuc(a1-2)[GalNAc(a1-3)]Gal(b1-4)GlcNAc
Procedure, shortened: as §1

[23] = target: Fuc(a1-2)[GalNAc(a1-3)]Gal(b1-4)[Fuc(a1-3)]GlcNAc
Procedure, shortened: as §1

[24] = target: Fuc(a1-2)[GalNAc(a1-4)]Gal(b1-4)GlcNAc
Procedure, shortened: as §1

[25] = target: Fuc(a1-2)[GalNAc(b1-3)]Gal
Procedure, shortened: as §1

Fuc(a1-3)GlcNAc = target: Fuc(a1-3)GlcNAc
Procedure, shortened: as §1

[26] = target: Fuc(a1-3)[Gal(b1-4)]Glc6S
Procedure, shortened: as §1

[27] = target: Fuc(a1-3)[Gal(b1-4)]GlcNAc
Procedure, shortened: as §1

[28] = target: Fuc(a1-3)[Gal(b1-4)]GlcNAc(b1-2)Man(a1-3)[Fuc(a1-3)[Gal(b1-4)]GlcNAc(b1-2)Man(a1-6)]Man(b1-4)GlcNAc(b1-4)GlcNAc
Procedure, shortened: as §1

B1: Surfactant Protein D (Human); Neck + Carbohydrate Recognition Domain (NCRD) (Homo sapiens) (protein)
chain: MLLFLLSALVLLTQPLGYLEAEMKTYSHRTMPSACTLVMCSSVESGLPGRDRDGREGPRGEKGDPGLPGAAGQAGMPGQAGPVGPKGDNGSVGEPGPKGDTGPSGPPGPPGVPGPAGREGALGKQGNIGPQGKPGPKGEAGPKGEVGAPGMQGSAGARGLAGPKGERGVPGERGVPGNTGAAGSAGAMGPQGSPGARGPPGLKGDKGIPGDKGAKGESGLPDVASLRQQVEALQGQVQHLQAAFSQYKKVELFPNGQSVGEKIFKTAQFVKPFTEAQLLCTQAGGQLASPRSAAENAALQQLVVAKNEAAFLSMTDSKTEGKFTYPTGESLVYSNWAPGEPNDNGGSEDCVEIFTNGKWNDRACGEKRLVVCEF
Q: B1 was tested. Which “glycan array binding signal (z-score)” value (Fuc(a1-2)Gal) did it give?
A: -0.136

Q: And the “glycan array binding signal (z-score)” value (Fuc(a1-2)Gal(b1-3)GalNAc)?
A: -0.104

Q: What about the “glycan array binding signal (z-score)” value [1] of the same binder?
A: -0.126

Q: And the “glycan array binding signal (z-score)” value [2]?
A: -0.138

Q: What about the “glycan array binding signal (z-score)” value [3] of the same binder?
A: -0.128

Q: What about the “glycan array binding signal (z-score)” value (Fuc(a1-2)Gal(b1-3)GlcNAc) of the same binder?
A: -0.143

Q: What about the “glycan array binding signal (z-score)” value [4] of the same binder?
A: -0.138

Q: And the “glycan array binding signal (z-score)” value [5]?
A: -0.155

Q: And the “glycan array binding signal (z-score)” value (Fuc(a1-2)Gal(b1-4)Glc)?
A: -0.138

Q: And the “glycan array binding signal (z-score)” value (Fuc(a1-2)Gal(b1-4)Glc6S)?
A: -0.151

Q: And the “glycan array binding signal (z-score)” value (Fuc(a1-2)Gal(b1-4)GlcNAc)?
A: -0.147

Q: What about the “glycan array binding signal (z-score)” value [6] of the same binder?
A: -0.137

Q: What about the “glycan array binding signal (z-score)” value [7] of the same binder?
A: -0.129

Q: And the “glycan array binding signal (z-score)” value [8]?
A: -0.139

Q: What about the “glycan array binding signal (z-score)” value [9] of the same binder?
A: -0.149

Q: What about the “glycan array binding signal (z-score)” value [10] of the same binder?
A: -0.144

Q: And the “glycan array binding signal (z-score)” value [11]?
A: -0.13

Q: And the “glycan array binding signal (z-score)” value (Fuc(a1-2)Gal6S(b1-4)Glc)?
A: -0.155

Q: What about the “glycan array binding signal (z-score)” value [12] of the same binder?
A: -0.125

Q: And the “glycan array binding signal (z-score)” value [13]?
A: -0.13

Q: And the “glycan array binding signal (z-score)” value (Fuc(a1-2)[Gal(a1-3)]Gal)?
A: -0.136

Q: And the “glycan array binding signal (z-score)” value [14]?
A: -0.124

Q: What about the “glycan array binding signal (z-score)” value [15] of the same binder?
A: -0.155

Q: What about the “glycan array binding signal (z-score)” value [16] of the same binder?
A: -0.128

Q: What about the “glycan array binding signal (z-score)” value [17] of the same binder?
A: -0.1

Q: And the “glycan array binding signal (z-score)” value [18]?
A: -0.137

Q: What about the “glycan array binding signal (z-score)” value [19] of the same binder?
A: -0.135

Q: What about the “glycan array binding signal (z-score)” value [20] of the same binder?
A: -0.155

Q: What about the “glycan array binding signal (z-score)” value [21] of the same binder?
A: -0.132

Q: What about the “glycan array binding signal (z-score)” value [22] of the same binder?
A: -0.091

Q: And the “glycan array binding signal (z-score)” value [23]?
A: -0.147

Q: And the “glycan array binding signal (z-score)” value [24]?
A: -0.128

Q: What about the “glycan array binding signal (z-score)” value [25] of the same binder?
A: -0.099

Q: What about the “glycan array binding signal (z-score)” value (Fuc(a1-3)GlcNAc) of the same binder?
A: -0.098

Q: What about the “glycan array binding signal (z-score)” value [26] of the same binder?
A: -0.143

Q: And the “glycan array binding signal (z-score)” value [27]?
A: -0.138

Q: What about the “glycan array binding signal (z-score)” value [28] of the same binder?
A: -0.127
